Publication PMC10036635, “FTD-tau S320F mutation stabilizes local structure and allosterically promotes amyloid motif-dependent aggregation” (Nature Communications, 2023)

What was measured:
[1] = target: the molecule itself; assay: ThT fluorescence aggregation assay + negative-stain TEM; self-assembly of tauRD into fibrils at 62.5 µM without inducer; 1x PBS, 2 mM TCEP, 25 µM ThT, 37 °C, 96 h; TEM of the endpoint
[2] = target: the molecule itself; assay: ThT fluorescence aggregation assay + negative-stain TEM; self-assembly of tauRD into fibrils at 25 µM without inducer; 1x PBS, 2 mM TCEP, 25 µM ThT, 37 °C; TEM of the endpoint
[3] = target: the molecule itself; assay: ThT fluorescence aggregation assay + negative-stain TEM; self-assembly of tauRD into fibrils at 100 µM without inducer; 1x PBS, 2 mM TCEP, 25 µM ThT

B1: S320F tauRD ([…]) (domain or fragment)
chain: not shown
notes: microtubule-associated protein tau, human, repeat domain, […], FTD-tau mutation S320F; numbers count on: 2N4R tau ([…]); pet28b backbone without the C-terminal His-tag; also called tauRD S320F; source: E. coli BL21-Gold (DE3), purified (boiling, HiTrap SP HP, Superdex 75)
binding result [1]: binds

B2: S320V tauRD ([…]) (domain or fragment)
chain: not shown
notes: microtubule-associated protein tau, human, repeat domain, […]; numbers count on: 2N4R tau ([…]); mutation chosen by Rosetta design on the PiD fibril structure; source: E. coli BL21-Gold (DE3), purified (boiling, HiTrap SP HP, Superdex 75)
binding result [2]: binds

B3: S320I tauRD ([…]) (domain or fragment)
chain: not shown
notes: microtubule-associated protein tau, human, repeat domain, […]; numbers count on: 2N4R tau ([…]); mutation chosen by Rosetta design on the CBD fibril structure; source: E. coli BL21-Gold (DE3), purified (boiling, HiTrap SP HP, Superdex 75)
binding result [3]: binds

B4: S320I_I328V tauRD ([…]) (domain or fragment)
chain: not shown
notes: microtubule-associated protein tau, human, repeat domain, […]; numbers count on: 2N4R tau ([…]); mutations chosen by Rosetta design on the CBD fibril structure; source: E. coli BL21-Gold (DE3), purified (boiling, HiTrap SP HP, Superdex 75)
binding result [3]: binds
